Measurements reported in the supplement of paper PMC8728848.
The list shows a part of the results.

Columns and labels:
Assay in all cases: glycan array binding signal (z-score within array); higher = stronger binding
Details in all cases: glycan notation: IUPAC condensed, linker removed
Fuc(a1-2)Gal = biological target: Fuc(a1-2)Gal
In short: (§1)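 Arrays were curated from the Consortium for Functional Glycomics database, 3228 in total, and kept only where the protein sequence was available. Binding is expressed as a within-array Z-score. This score was averaged across arrays of the same protein sequence at different concentrations or buffers and across linkers, and negative values can be read as non-binding.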

Fuc(a1-2)Gal(b1-3)GalNAc = biological target: Fuc(a1-2)Gal(b1-3)GalNAc
In short: as §1

[1] = biological target: Fuc(a1-2)Gal(b1-3)GalNAc(a1-3)[Fuc(a1-2)]Gal(b1-4)Glc
In short: as §1

[2] = biological target: Fuc(a1-2)Gal(b1-3)GalNAc(a1-3)[Fuc(a1-2)]Gal(b1-4)GlcNAc
In short: as §1

[3] = biological target: Fuc(a1-2)Gal(b1-3)GalNAc(b1-3)Gal
In short: as §1

[4] = biological target: Fuc(a1-2)Gal(b1-3)GalNAc(b1-3)Gal(a1-4)Gal(b1-4)Glc
In short: as §1

[5] = biological target: Fuc(a1-2)Gal(b1-3)GalNAc(b1-4)[Neu5Ac(a2-3)]Gal(b1-4)Glc
In short: as §1

Fuc(a1-2)Gal(b1-3)GlcNAc = biological target: Fuc(a1-2)Gal(b1-3)GlcNAc
In short: as §1

[6] = biological target: Fuc(a1-2)Gal(b1-3)GlcNAc(b1-2)Man(a1-3)[Fuc(a1-2)Gal(b1-3)GlcNAc(b1-2)Man(a1-6)]Man(b1-4)GlcNAc(b1-4)GlcNAc
In short: as §1

[7] = biological target: Fuc(a1-2)Gal(b1-3)GlcNAc(b1-2)Man(a1-3)[Fuc(a1-2)Gal(b1-3)GlcNAc(b1-2)Man(a1-6)]Man(b1-4)GlcNAc(b1-4)[Fuc(a1-6)]GlcNAc
In short: as §1

[8] = biological target: Fuc(a1-2)Gal(b1-3)GlcNAc(b1-3)Gal(b1-4)Glc
In short: as §1

[9] = biological target: Fuc(a1-2)Gal(b1-3)GlcNAc(b1-3)GalNAc
In short: as §1

[10] = biological target: Fuc(a1-2)Gal(b1-3)GlcNAc(b1-3)[Fuc(a1-2)Gal(b1-3)GlcNAc(b1-6)]GalNAc
In short: as §1

[11] = biological target: Fuc(a1-2)Gal(b1-3)GlcNAc(b1-3)[Gal(b1-4)GlcNAc(b1-6)]Gal(b1-4)Glc
In short: as §1

[12] = biological target: Fuc(a1-2)Gal(b1-3)GlcNAc(b1-3)[Neu5Ac(a2-6)Gal(b1-4)GlcNAc(b1-6)]Gal(b1-4)Glc
In short: as §1

[13] = biological target: Fuc(a1-2)Gal(b1-3)GlcNAc6S
In short: as §1

[14] = biological target: Fuc(a1-2)Gal(b1-3)[Fuc(a1-4)]GlcNAc
In short: as §1

[15] = biological target: Fuc(a1-2)Gal(b1-3)[Fuc(a1-4)]GlcNAc(b1-2)Man(a1-3)[Fuc(a1-2)Gal(b1-3)[Fuc(a1-4)]GlcNAc(b1-2)Man(a1-3)]Man(b1-4)GlcNAc(b1-4)GlcNAc
In short: as §1

[16] = biological target: Fuc(a1-2)Gal(b1-3)[Fuc(a1-4)]GlcNAc(b1-2)Man(a1-3)[Fuc(a1-2)Gal(b1-3)[Fuc(a1-4)]GlcNAc(b1-2)Man(a1-6)]Man(b1-4)GlcNAc(b1-4)[Fuc(a1-6)]GlcNAc(b1-4)[Fuc(a1-6)]GlcNAc
In short: as §1

[17] = biological target: Fuc(a1-2)Gal(b1-3)[Fuc(a1-4)]GlcNAc(b1-3)[Fuc(a1-3)[Gal(b1-4)]GlcNAc(b1-6)]Gal(b1-4)Glc
In short: as §1

[18] = biological target: Fuc(a1-2)Gal(b1-3)[Fuc(a1-4)]GlcNAc(b1-3)[Gal(b1-4)GlcNAc(b1-6)]Gal(b1-4)Glc
In short: as §1

Fuc(a1-2)Gal(b1-4)Glc = biological target: Fuc(a1-2)Gal(b1-4)Glc
In short: as §1

Fuc(a1-2)Gal(b1-4)Glc6S = biological target: Fuc(a1-2)Gal(b1-4)Glc6S
In short: as §1

Fuc(a1-2)Gal(b1-4)GlcNAc = biological target: Fuc(a1-2)Gal(b1-4)GlcNAc
In short: as §1

[19] = biological target: Fuc(a1-2)Gal(b1-4)GlcNAc(b1-2)Man
In short: as §1

[20] = biological target: Fuc(a1-2)Gal(b1-4)GlcNAc(b1-2)Man(a1-3)[Fuc(a1-2)Gal(b1-4)GlcNAc(b1-2)Man(a1-6)]Man(b1-4)GlcNAc(b1-4)GlcNAc
In short: as §1

[21] = biological target: Fuc(a1-2)Gal(b1-4)GlcNAc(b1-2)Man(a1-3)[Fuc(a1-2)Gal(b1-4)GlcNAc(b1-2)Man(a1-6)]Man(b1-4)GlcNAc(b1-4)[Fuc(a1-6)]GlcNAc
In short: as §1

[22] = biological target: Fuc(a1-2)Gal(b1-4)GlcNAc(b1-2)[Fuc(a1-2)Gal(b1-4)GlcNAc(b1-4)]Man(a1-3)[Fuc(a1-2)Gal(b1-4)GlcNAc(b1-2)Man(a1-6)]Man(b1-4)GlcNAc(b1-4)GlcNAc
In short: as §1

[23] = biological target: Fuc(a1-2)Gal(b1-4)GlcNAc(b1-3)Gal(b1-4)GlcNAc
In short: as §1

[24] = biological target: Fuc(a1-2)Gal(b1-4)GlcNAc(b1-3)Gal(b1-4)GlcNAc(b1-2)Man(a1-3)[Fuc(a1-2)Gal(b1-4)GlcNAc(b1-3)Gal(b1-4)GlcNAc(b1-2)Man(a1-6)]Man(b1-4)GlcNAc(b1-4)GlcNAc
In short: as §1

B1: GS14009A-pdi-495-27-495 (Parabacteroides distasonis) (protein)
chain: FEEVNTDPDSPTDVPTTNLLAYSLYYTSYRLYDRWFAMDEPMTFCGYASKMTYIDESRYNFRTGVQDTNWEYLYRILNNLKDIEKRATFNETPNMLNVSKVMQVHLMQVATDRWRDVPYTDAAKMTDGILQPKYDKQEDIYPGLLATLKEAADGFADGGSDDLGEGDLLFGGDIEKWQRYCNSMRLRLAMRISEVSPALAKETVEEVMGNPTKYPIMESNDDNAFFWWIGTDPNYYEPMADGYRTRKTEYCAADVIVDHMNTREDPRRSSYFQPTKESVEAGEPKYVGYTIGAKANAVASKYSIWGARFFTDLAGFSPYMRVAEPWFCVAEASMLGWNTGISAEDAYNKAVTYSMEENSVSAEDIADYLANAGKFTNDKKQIYYEEWVAMFKQGMEGWSLYRRTGVPDNLYPAPGRPANYSNHNVPPFRSPYPDKERNLNNANCAPFDAEVVDNLWGKQMWWDTRTGVH
glycan array binding signal (z-score) (Fuc(a1-2)Gal): 0.274
glycan array binding signal (z-score) (Fuc(a1-2)Gal(b1-3)GalNAc): 0.009
glycan array binding signal (z-score) [1]: -0.168
glycan array binding signal (z-score) [2]: -0.466
glycan array binding signal (z-score) [3]: -0.728
glycan array binding signal (z-score) [4]: 0.204
glycan array binding signal (z-score) [5]: -0.562
glycan array binding signal (z-score) (Fuc(a1-2)Gal(b1-3)GlcNAc): -0.332
glycan array binding signal (z-score) [6]: 2.57
glycan array binding signal (z-score) [7]: 0.434
glycan array binding signal (z-score) [8]: -0.336
glycan array binding signal (z-score) [9]: -0.01
glycan array binding signal (z-score) [10]: -0.336
glycan array binding signal (z-score) [11]: -0.574
glycan array binding signal (z-score) [12]: -0.142
glycan array binding signal (z-score) [13]: -0.626
glycan array binding signal (z-score) [14]: -0.076
glycan array binding signal (z-score) [15]: -0.193
glycan array binding signal (z-score) [16]: -0.408
glycan array binding signal (z-score) [17]: 0.007
glycan array binding signal (z-score) [18]: -0.261
glycan array binding signal (z-score) (Fuc(a1-2)Gal(b1-4)Glc): -0.343
glycan array binding signal (z-score) (Fuc(a1-2)Gal(b1-4)Glc6S): -0.658
glycan array binding signal (z-score) (Fuc(a1-2)Gal(b1-4)GlcNAc): -0.134
glycan array binding signal (z-score) [19]: -0.18
glycan array binding signal (z-score) [20]: 1.27
glycan array binding signal (z-score) [21]: -0.171
glycan array binding signal (z-score) [22]: 0.441
glycan array binding signal (z-score) [23]: -0.485
glycan array binding signal (z-score) [24]: 0.738
